{"source": "paper PMC9574860", "about": "“Chemical Toolkit for PARK7: Potent, Selective, and High-Throughput” (Journal of Medicinal Chemistry, 2022)", "note": "In all, about 7,900 compounds went through this assay and about 400 (5.1%) showed an effect of 50% or more. This is one part of the list."}
{"target": "Parkinson's disease protein 7 (PARK7/DJ1) (human, UniProt Q99497)", "sequence (Q99497 whole entry, looked up, the tested form may be a part)": "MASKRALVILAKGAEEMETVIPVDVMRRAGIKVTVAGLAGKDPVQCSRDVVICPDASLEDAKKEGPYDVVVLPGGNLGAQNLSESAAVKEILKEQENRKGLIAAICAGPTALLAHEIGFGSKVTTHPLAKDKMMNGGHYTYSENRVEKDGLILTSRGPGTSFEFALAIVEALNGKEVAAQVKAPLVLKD", "assay": "primary screen, percent inhibition; read as competition with a fluorescent probe by fluorescence polarization; higher = more effect of the substance", "settings": "100 µM", "description": "The screen was conducted using the conditions as described above in 1536-well plates (Corning 3724) with a reaction volume of 8 μL per well. The compound library containing 7887 covalent fragments was purchased at Enamine Ltd. and received as 100 mM DMSO stocks in 384 well LDV Echo plates (Labcyte LP-0200). Stock solutions of 0.26 μM PARK7 and 80 nM JYQ-107 were prepared. Using a Labcyte Echo550 acoustic dispenser, 8 nL of the DMSO stock solution of the library compounds was transferred from the source plates into the empty 1536-well screening plates to obtain a 100 μM final compound concentration. Next, PARK7 (6 μL, final concentration 0.2 μM) was dispensed using a Biotek MultiflowFX liquid dispenser and incubated for 2 h, followed by dispensing the probe JYQ-107 (2 μL, final concentration 20 nM). After 2 h incubation, the FP signal was recorded on a BMG Labtech PHERAstar plate reader (λex/em 480/520 nm). The relative loss of FP signal compared with reference controls was used to calculate the remaining enzyme activity.", "units": {"Inhibition %": "%"}}
{"smiles": "N#Cc1ncn(Cc2cccc(F)c2)n1", "Inhibition %": -0.226}
{"smiles": "CC1(C)COC(=O)C1NC(=O)Nc1ccc(F)cn1", "note": "(centres unmarked)", "Inhibition %": 8.35}
{"smiles": "CC(C)(C)c1ccnc(S)n1", "Inhibition %": 41.3}
{"smiles": "CCOc1ccc(S(=O)(=O)n2ccnc2C(C)C)cc1C", "Inhibition %": 2.99}
{"smiles": "O=C(CC1C=CS(=O)(=O)C1)NCc1cccc(F)c1", "note": "(centres unmarked)", "Inhibition %": 6.58}
{"smiles": "C=CC(=O)N1CCN(Cc2ncc(-c3ccccc3)o2)CC1", "Inhibition %": 12.5}
{"smiles": "N#Cc1ncn(CC(=O)N2CCc3ccccc32)n1", "Inhibition %": 2.7}
{"smiles": "Cc1noc(C)c1CCn1ccnc1C#N", "Inhibition %": 0.0226}
{"smiles": "Cc1ccc(S(=O)(=O)n2ccc(C(=O)O)c2)cc1", "Inhibition %": 11.3}
{"smiles": "C=CC(=O)NC1CCCC(CC)C1", "note": "(centres unmarked)", "Inhibition %": 6.12}
{"smiles": "CC1(C)OB(c2cc3occc3cc2F)OC1(C)C", "Inhibition %": -1.65}
{"smiles": "CC1(C)OB(c2ccc(C3(CO)CC3)cc2)OC1(C)C", "Inhibition %": 2.39}
{"smiles": "Cc1csc(NC(=O)CCl)n1", "Inhibition %": -1.74}
{"smiles": "CN1CC(=O)OB(c2ccc(C(F)(F)F)cn2)OC(=O)C1", "Inhibition %": 3.49}
{"smiles": "O=C(CCCl)Nc1ccnn1C1CCCC1", "Inhibition %": 15.8}
{"smiles": "Cc1nc(C#N)c(NCCc2ccccc2)o1", "Inhibition %": 6.1}
{"smiles": "C=CC(=O)NC1CCOC(CC)C1", "note": "(centres unmarked)", "Inhibition %": 10.5}
{"smiles": "CC(C)(C)c1n[nH]cc1C=C(C#N)C(=O)N1CCCC1", "Inhibition %": 6.17}
{"smiles": "Cn1cc(S(=O)(=O)Oc2cnc3ccccc3c2)cn1", "Inhibition %": 6.55}
{"smiles": "O=[N+]([O-])c1cccc(S(=O)(=O)F)c1", "Inhibition %": 99.2}
{"smiles": "C=CC(=O)N(C)CC1CCCc2sc(C)nc21", "note": "(centres unmarked)", "Inhibition %": 7.4}
{"smiles": "N#Cc1ncn(CC(=O)N2CCCC3CCCCC32)n1", "note": "(centres unmarked)", "Inhibition %": -1.06}
{"smiles": "CCCc1cccc(B2OC(C)(C)C(C)(C)O2)c1", "Inhibition %": 5.49}
{"smiles": "O=C(N1CCc2sccc2C1)n1ccnc1", "Inhibition %": 15.4}
{"smiles": "C=CC(=O)NC1CCC(C(=O)NC)CC1", "note": "(centres unmarked)", "Inhibition %": 10.1}
{"smiles": "C1CN(CC2CO2)CCS1", "note": "(centres unmarked)", "Inhibition %": 6.78}
{"smiles": "C=CC(=O)N1CC2CCC2(N)C1.O=C(O)C(F)(F)F", "note": "(centres unmarked)", "Inhibition %": 4.78}
{"smiles": "Cc1cc(S(=O)(=O)n2cccn2)ccc1F", "Inhibition %": 11.6}
{"smiles": "CCSc1nccnc1C#N", "Inhibition %": 2.19}
{"smiles": "O=C(c1ccccc1Cl)N1CCCCC1C1OCCO1", "note": "(centres unmarked)", "Inhibition %": 5.3}
{"smiles": "O=C(O)c1ccc(CS)c(F)c1", "Inhibition %": 82.7}
{"smiles": "Cc1[nH]c(C#N)cc1C(=O)N[C@@H]1C[C@@H](O)C12CCOCC2", "Inhibition %": 4.76}
{"smiles": "CC1(C)OB(C2=CCSC2)OC1(C)C", "Inhibition %": 6.89}
{"smiles": "Cc1ccc2c(c1)CCCN2C(=O)CCN1CCSC1=O", "Inhibition %": 15}
{"smiles": "CN1C=CC(=C(C#N)C(=O)CCl)C=C1", "Inhibition %": 9.45}
{"smiles": "CC1(C)Cc2cc(C=C(C#N)C(N)=O)ccc2O1", "Inhibition %": 12.2}
{"smiles": "C=CC(=O)N1CCC2(CCc3ccccc3O2)CC1", "Inhibition %": 10.1}
{"smiles": "C=CC(=O)Nc1cccc(Cl)c1", "Inhibition %": 1.86}
{"smiles": "C=CC(=O)NCCN1CCCC(C)(C)C1", "Inhibition %": 8.42}
{"smiles": "COc1ccc(C=C(C#N)C(N)=S)cc1O", "Inhibition %": 14.8}
{"smiles": "O=C(CCl)Nc1ccccc1Sc1ccccc1", "Inhibition %": 48.7}
{"smiles": "C=CC(=O)NCc1c(C2CC2)cnn1C", "Inhibition %": 1.86}
{"smiles": "Cc1ccc(F)c(OS(=O)(=O)c2cn[nH]c2C)c1", "Inhibition %": 11.7}
{"smiles": "Cc1ccccc1OCCn1cnc(C#N)n1", "Inhibition %": 4.98}
{"smiles": "Cc1cccc(NC2C=CS(=O)(=O)C2)c1", "note": "(centres unmarked)", "Inhibition %": 7.19}
{"smiles": "CC1(C)OB(C2CC23CCOCC3)OC1(C)C", "note": "(centres unmarked)", "Inhibition %": 2.49}
{"smiles": "O=C1OCCC1Sc1ncnc2ccsc12", "note": "(centres unmarked)", "Inhibition %": 3.13}
{"smiles": "O=C(CCl)NCC1(c2ccccc2)CCC1", "Inhibition %": 15.1}
{"smiles": "CCCN(c1ccc(C#N)nc1)C1CC1", "Inhibition %": 4.72}
{"smiles": "CCNC(=O)Oc1cccc(O)c1", "Inhibition %": 32.3}
{"smiles": "O=C(Nc1ccc(Cl)cc1)N1CCC(C2OCCO2)CC1", "Inhibition %": 14}
{"smiles": "Cc1ccc(Oc2ccc(Cl)cc2NC(=O)CCl)cc1", "Inhibition %": 2.17}
{"smiles": "O=C(CCl)Nc1c(F)cccc1F", "Inhibition %": 26.1}
{"smiles": "N#Cc1nc(N2CCC(NC(N)=O)CC2)ccc1Cl", "Inhibition %": 4.8}
{"smiles": "Cn1cc(C(=O)CCl)cc1C(N)=O", "Inhibition %": 0.329}
{"smiles": "O=C(C=Cc1nc2ccccc2o1)N1CCC1", "Inhibition %": 4.95}
{"smiles": "CN(C(=O)c1ccc2c(=O)n(C)c(S)nc2c1)C1CC1", "Inhibition %": 5.16}
{"smiles": "Cc1cc(B(O)O)ccc1OCc1ccc(Cl)cc1", "Inhibition %": 0.486}
{"smiles": "CCN(CCC#N)S(=O)(=O)C=Cc1ccccc1", "Inhibition %": 1.49}
{"smiles": "Cc1ccnc(S)n1.Cl", "Inhibition %": 5.09}
{"smiles": "N#Cc1cccc(SCCN2CCOCC2)n1", "Inhibition %": 2.57}
{"smiles": "C=CC(=O)NC1CCOc2c(OC)cccc21", "note": "(centres unmarked)", "Inhibition %": 11}
{"smiles": "C=CC(=O)N1CCC(Oc2ccc(C3CC3)cn2)C1", "note": "(centres unmarked)", "Inhibition %": 11.9}
{"smiles": "CCc1cc(S)nc(S)n1", "Inhibition %": -0.469}
{"smiles": "C=CC(=O)Nc1cc(C2CCCO2)nn1C", "note": "(centres unmarked)", "Inhibition %": 13.1}
{"smiles": "N#Cc1nccnc1NCCc1ccc[nH]1", "Inhibition %": 5.64}
{"smiles": "C=CC(=O)N1CCCC1C", "note": "(centres unmarked)", "Inhibition %": 7.71}
{"smiles": "O=c1[nH]c2ccccc2n1CCCCl", "Inhibition %": 4.46}
{"smiles": "CC(NC(=O)c1cccnc1S)C(O)c1ccc(F)cc1", "note": "(centres unmarked)", "Inhibition %": 2.15}
{"smiles": "COCCNC(=O)C(C#N)=Cc1ccc(O)cc1", "Inhibition %": -0.455}
{"smiles": "N#CC(=Cc1ccccc1OCC(F)(F)F)C(N)=O", "Inhibition %": 22.7}
{"smiles": "N#Cc1c(N)nc2n1CCC2", "Inhibition %": 33.2}
{"smiles": "CC1OC(C)(C)N(C(=O)OC(C)(C)C)C1CB1OC(C)(C)C(C)(C)O1", "note": "(centres unmarked)", "Inhibition %": 9.69}
{"smiles": "CN(C)c1cccnc1C#N", "Inhibition %": 2.64}
{"smiles": "CC(OCC1CO1)c1ccc(Cl)cc1", "note": "(centres unmarked)", "Inhibition %": 5.47}
{"smiles": "C=CC(=O)NCC1(c2c(F)cccc2F)CCC1", "Inhibition %": 3.26}
{"smiles": "O=S(=O)(F)c1cccc(S(=O)(=O)Nc2ncccn2)c1", "Inhibition %": 16.8}
{"smiles": "CN(Cc1ccc(N(C)C)cc1)C(=O)CCl.Cl", "Inhibition %": 71.3}
{"smiles": "Cc1cccc(C)c1NC(=O)CNC(=O)CCl", "Inhibition %": 3.45}
{"smiles": "C=CC(=O)NCc1c2c(nn1C)CCCC2", "Inhibition %": 4.79}
{"smiles": "Cc1cc(Cn2c(-c3ccccc3C)noc2=O)no1", "Inhibition %": 9.88}
{"smiles": "N#CC(=Cc1ccsc1)C(N)=O", "Inhibition %": 10.6}
{"smiles": "O=C(CCl)NNC(=O)c1cccs1", "Inhibition %": 7.74}
{"smiles": "Cn1c(C(C#N)=Cc2cccnc2)nc2ccccc21", "Inhibition %": 48.5}
{"smiles": "OB(O)c1ccc2c(c1)CCC2", "Inhibition %": 6.42}
{"smiles": "C=CC(=O)NC1(c2ccccc2)CC1", "Inhibition %": 13.8}
{"smiles": "C=CC(=O)N[C@H]1COC[C@H]1Oc1cnn(CC)c1", "Inhibition %": 6.37}
{"smiles": "O=c1onc(-c2ncccn2)n1Cc1ccc(Cl)s1", "Inhibition %": 2.32}
{"smiles": "Cc1conc1NS(=O)(=O)c1cccc(S(=O)(=O)F)c1", "Inhibition %": 99}
{"smiles": "COc1ccc(Cl)cc1NC(=O)CCCl", "Inhibition %": 9.72}
{"smiles": "CCN(CC)C(=O)CSc1cccc(C#N)n1", "Inhibition %": 3.91}
{"smiles": "Cc1ccc(N)cc1B1OC(C)(C)C(C)(C)O1", "Inhibition %": 14.1}
{"smiles": "CNc1cc(C#N)ncn1.Cl", "Inhibition %": 5.73}
{"smiles": "O=C(CCl)Nc1c(Cl)cccc1Cl", "Inhibition %": 1.12}
{"smiles": "O=C(CCl)Nc1ccccc1C(=O)NC1CC1", "Inhibition %": 7.53}
{"smiles": "C=CC(=O)Nc1cccnc1", "Inhibition %": 7.7}
{"smiles": "Cl.O=C(CCl)NCC1(N2CCOCC2)CCCCC1", "Inhibition %": 3.15}
{"smiles": "CN(C)C(=O)Oc1ccc(NC(=O)N2CCOCC2)cc1", "Inhibition %": 4.77}
{"smiles": "CN(C)S(=O)(=O)c1cccc(NC(=O)CCl)c1", "Inhibition %": 15.5}
{"smiles": "O=C1C(Cc2ccccc2)N=C(S)N1CC1CCCO1", "note": "(centres unmarked)", "Inhibition %": 2.33}
{"smiles": "CC1(C)NC(=O)C1(C)C", "Inhibition %": 2.57}
{"smiles": "COc1cccc(C2=NC(=Cc3cccnc3)C(=O)O2)c1", "Inhibition %": 3.51}
{"smiles": "C=CC(=O)N1CCc2c(ncn2C)C1", "Inhibition %": 24.3}
{"smiles": "C=CC(=O)N1C(C)CN(CC)CC1C", "note": "(centres unmarked)", "Inhibition %": 18.5}
{"smiles": "CCNC(=O)C(C#N)=CC1=Cc2ccccc2OC1", "Inhibition %": 1.81}
{"smiles": "C=CCN(C)C(=O)CCn1c(S)nc2ccccc2c1=O", "Inhibition %": 6.8}
{"smiles": "CC1COCCN1C(=O)C=Cc1nc2ccccc2o1", "note": "(centres unmarked)", "Inhibition %": 11.9}
{"smiles": "CCc1nccn1S(=O)(=O)c1ccc(F)c(C)c1", "Inhibition %": 26.7}
{"smiles": "COc1cc(S(=O)(=O)n2cnc(C)c2)c(C)cc1C", "Inhibition %": 9.13}
{"smiles": "O=C(CN1CCSC1=O)Nc1ccc(Cl)cc1F", "Inhibition %": 6.77}
{"smiles": "O=C(c1cccc(S(=O)(=O)F)c1)N1CCCn2ncc(C3CC3)c21", "Inhibition %": 6.74}
{"smiles": "O=C1CCC(=O)N1c1cccnc1", "Inhibition %": 4.72}
{"smiles": "N#CC(=Cc1ccc2c(c1)OCCO2)C(N)=O", "Inhibition %": 4.34}
{"smiles": "COc1cccc2c1CCN(CC1OCCO1)CC2", "Inhibition %": 13.1}
{"smiles": "CC1(C)C(=O)NC1C1CCN(C(=O)N2CCSCC2)CC1", "note": "(centres unmarked)", "Inhibition %": 2.2}
{"smiles": "N#CC(c1cccs1)N1CCN(C(=O)CCl)CC1", "note": "(centres unmarked)", "Inhibition %": 17.3}
{"smiles": "Cc1cccc2c(N)cc(S)nc12", "Inhibition %": 3.88}
{"smiles": "O=C(CCl)NNC(=O)c1ccc(F)cc1", "Inhibition %": 23.9}
{"smiles": "Cc1ccccc1CN(C)C1CCOC1=O", "note": "(centres unmarked)", "Inhibition %": 8.98}
{"smiles": "CC1(C)OB(c2cccc(Cn3cccn3)c2)OC1(C)C", "Inhibition %": 4.09}
{"smiles": "COCc1n[nH]c(=O)o1", "Inhibition %": 2.07}
{"smiles": "C=CC(=O)N1CCCCc2sccc21", "Inhibition %": 8.81}
{"smiles": "O=C(C=Cc1ccncc1)N1CCOc2ccccc21", "Inhibition %": 5.34}
{"smiles": "O=S(=O)(F)c1ccc(S(=O)(=O)Nc2ccnnc2)cc1", "Inhibition %": 8.23}
{"smiles": "COc1ccc(NC(=O)CCCl)cc1", "Inhibition %": 4.56}
